The campaign covered roughly 330,000 compounds. About 40 (0.01%) were called active. The shares of active, inactive and inconclusive entries below differ from those in the screen. Calls come from the whole dose curve; as a rule, active = well fitted inhibition curve with a large enough effect; inconclusive = small, poorly fitted or top-dose-only effect, or effect the other way; inactive = flat fitted curve, though single readings scatter. A potency beside an inconclusive call is a rough fit, not a confirmed value.
Target: Ubiquitin carboxyl-terminal hydrolase 2 (Homo sapiens) (UniProt O75604)
Sequence of UniProt O75604 (O75604 whole entry, looked up): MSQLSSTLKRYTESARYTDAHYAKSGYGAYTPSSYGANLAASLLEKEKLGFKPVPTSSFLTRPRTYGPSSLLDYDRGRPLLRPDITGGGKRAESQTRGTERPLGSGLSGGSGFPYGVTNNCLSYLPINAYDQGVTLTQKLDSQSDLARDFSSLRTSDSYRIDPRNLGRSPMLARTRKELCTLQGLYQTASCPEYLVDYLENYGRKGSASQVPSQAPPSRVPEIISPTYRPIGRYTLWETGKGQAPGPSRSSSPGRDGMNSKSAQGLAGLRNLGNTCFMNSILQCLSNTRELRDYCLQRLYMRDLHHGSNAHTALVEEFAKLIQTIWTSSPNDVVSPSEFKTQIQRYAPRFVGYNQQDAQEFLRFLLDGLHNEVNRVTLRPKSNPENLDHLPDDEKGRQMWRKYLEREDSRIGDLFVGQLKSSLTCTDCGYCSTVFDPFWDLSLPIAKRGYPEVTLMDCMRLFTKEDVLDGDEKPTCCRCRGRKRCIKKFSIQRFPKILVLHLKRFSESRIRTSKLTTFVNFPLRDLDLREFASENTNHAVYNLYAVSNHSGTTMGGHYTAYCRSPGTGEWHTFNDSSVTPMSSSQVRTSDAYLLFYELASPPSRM
Assay: qHTS Assay for Inhibitors of Ubiquitin-specific Protease USP2a Using CHOP2 as the Reporter;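 for activity change, negative = inhibition: plate controls were DMSO wells for no effect and full inhibition by NEM control for full effect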
Details: USP2 core, Ub-CHOP2 coupled fluorogenic reporter, 485/531; activity change, negative = inhibition: at 38.3 µM (top of the series)
Outline: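 Cell-free coupled assay: 10nM USP2 core preincubated 30min RT with compound in Tris-HCl pH 8.0/CaCl2/CHAPS buffer, then 25nM Ub-CHOP2 and 25nM reporter substrate; fluorescence (Ex 485/Em 531) read after 60min RT, normalized to NEM inhibition, concentration-response curves fitted.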
Potency is the fitted concentration of half-maximal effect; tags give direction and shape of the fitted curve or compound fluorescence and quenching.

Potency, active:
Cc1ccc(C)c(S(=O)(=O)N2CCN(C(=O)/C=C/c3ccco3)CC2)c1 22.4 µM

Potency, inconclusive:
COCCCNCCCOc1ccc(C)cc1Br 0.794 µM [falling, full curve]
CCN(CC)Cc1c(O)ccc2c1O/C(=C\C=C\c1ccccc1)C2=O 11.2 µM [fluorescent, partial curve]
O=C(NC1CCCCC1)C(c1ccco1)N(C(=O)c1csnn1)c1cccc(F)c1 (stereo unspecified) 28.2 µM [falling, single point]
CC(C)Oc1ccc(C(=O)Nc2ccc(N3CCCC3)cc2)cc1 28.2 µM [falling, single point]
Cc1c2c(=O)n(-c3nc4ccccc4s3)nc-2cc(O)n1Cc1ccccc1 22.4 µM [falling, single point]
CCC1(c2ccccc2)NC(=O)N(CC(=O)Nc2ccc(OC)nc2)C1=O (stereo unspecified) 20 µM [fluorescent, single point]
O=C1OC[C@@H]2CCCN2C(=O)[C@@H](CC(=O)N(CCO)Cc2ccccc2)C/C=C\C[C@@H]1Cc1ccc(F)cc1 5.01 µM [falling, single point]
CCN(CC)c1ccc2cc(C(C)=O)c(=O)oc2c1 12.6 µM [fluorescent, single point]
N#C/C(=C\c1ccc(N2CCOCC2)o1)C(=O)NCCc1ccccc1 10 µM [fluorescent, single point]
CCCCCCCCCCOC(=O)Cn1c(COc2ccccc2C)[n+](C)c2ccccc21 28.2 µM [falling, single point]
Cc1noc(/C=C/NCc2cccnc2)c1S(=O)(=O)N(C)CC(=O)N1CCc2ccccc21 28.2 µM [falling, single point]
CCC1SC2=NC(C)=C(C(=O)OCCOC)C(c3ccc(C(=O)OC)cc3)N2C1=O (stereo unspecified) 5.01 µM [falling, single point]
CCN(Cc1ccncc1)C(=O)c1cccs1 28.2 µM [falling, single point]
CC1(C)CC(=O)C=C(NNC(=O)c2cccnc2)C1 14.1 µM [fluorescent, single point]
CC(/C=C/c1ccc(N(C)C)cc1)=N\N=C(/N)SC1CC(=O)N(c2ccc(C(=O)O)cc2)C1=O (stereo unspecified) 28.2 µM [fluorescent, single point]
CCOC(=O)COc1c(OC)cc(Cl)cc1C1Nc2ccccc2C(=O)N1c1ccccc1 (stereo unspecified) 20 µM [falling, single point]
O=C1c2ccccc2-c2onc3ccc(NCCCn4ccnc4)c1c23 11.2 µM [fluorescent, partial curve]
Nc1ccc2nc3c(=O)n(CCc4ccccc4)c(=O)[nH]c3nc2c1 10 µM [fluorescent, partial curve]
COc1ccc(-n2nnnc2SCc2nc3ccccc3s2)cc1 28.2 µM [falling, single point]
O=C(COc1ccccc1)NCCSc1ccccc1 25.1 µM [falling, single point]
c1ccc(-c2cnn3c(-c4ccccc4)c(-c4ccccc4)nc3n2)cc1 1.26 µM [fluorescent, full curve, poor fit]
S=c1[nH]nc(-c2cc(-c3ccco3)[nH]n2)n1-c1cccc2ccccc12 22.4 µM [falling, single point]
O=C(NCc1ccccc1)C1CCC1 5.01 µM [falling, single point]
Cc1c2cc(O)c(=O)cc-2oc2cc(O)c(O)cc12 28.2 µM [fluorescent, single point]
CCN(CC)c1ccc(/C=C(\C#N)C(=O)c2ccc(Br)cc2)cc1 6.31 µM [fluorescent, partial curve]
CCC(CO)Oc1cc(NCc2cccc(C)c2)c2ncn(C(C)C)c2c1 (stereo unspecified) 5.01 µM [falling, single point]
O=C(OCCN1C(=O)c2cccc3c(N4CCOCC4)ccc(c23)C1=O)c1ccccc1Cl 28.2 µM [fluorescent, single point]
O=C1c2cccc3c(O)ccc(c23)C(=O)N1c1ccc(Cl)cc1 11.2 µM [fluorescent, partial curve]
N#CC1=C(N)C(C#N)(C#N)[C@H](c2c(F)cccc2F)[C@H]2CC3(CC=C12)OCCO3 10 µM [fluorescent, partial curve]

Activity change, negative = inhibition, inconclusive:
Cc1c2cc(O)c(=O)cc-2oc2cc(O)c(O)cc12 202% [fluorescent]

Activity change, negative = inhibition, inactive:
COC(=O)c1ccc(C2NC(=O)c3c(sc(C)c3C)N2)cc1 (stereo unspecified) -0.0366%
Cc1[nH][nH]c(=O)c1C(c1ccc(-c2cccc(Cl)c2)o1)c1c(C)[nH][nH]c1=O 0%
O=C(COC(=O)c1cc(F)c(F)cc1Cl)NC1CC1 -2.18%
O=C(Nc1cccc(F)c1)N1CC=C(n2c(=O)[nH]c3ccccc32)CC1 4.66%
COc1ccc(CN2CCC(=O)N([C@H](CO)CC(C)C)CC2)cc1OC 2.42%
Oc1ccc(/C=N/Nc2ccnc3cc(Cl)ccc23)c(O)c1O 1.09%
O=[N+]([O-])c1cc(Cl)cc(/C=N/NC(=S)Nc2ccc(S(=O)(=O)N3CCOCC3)cc2)c1O 1.68%
Cc1cc(C)c2nc(C)cc(N/N=C/c3ccc(O)cc3)c2c1 0.802%
Nc1nnc(CSCc2ccc(Cl)cc2Cl)s1 0.972%
c1ccc(-c2ccc(-c3nc(-c4ccccn4)no3)cc2)cc1 0.312%
COc1cccc2oc(-c3ccco3)cc(=O)c12 6.37%
Cc1cc(Cl)ccc1OCC(=O)NNC(=O)c1cnccn1 4.2%
O=C(Nc1ncc(Cc2cccc(C(F)(F)F)c2)s1)C1CCCO1 (stereo unspecified) 3.42%
Cc1cccc(C(=O)OCC(=O)c2ccc(CC(=O)N3CCOCC3)s2)c1C -3.55%
O=C(Nc1cccc([N+](=O)[O-])c1)Nc1cccs1 0.985%

— PubChem BioAssay AID463254 (National Center for Advancing Translational Sciences (NCATS), 2010)
